Laboratory results reported in patent publication US20230404081A1, “A FORMULATION AND A METHOD FOR INDUCING DEFENSE RESPONSE IN PLANTS” (NATIONAL INSTITUTE OF PLANT GENOME RESEARCH, priority 2020, published 2023).

System: Pseudomonas syringae pv. Tomato avrrpm1 DC3000
Test: Challenge of sodium dithionite treated plants with Pseudomonas syringae, bacterial count
Details: distal part challenged with 1×10^8 CFU/ml, 48 hpi, vs control plants
Experimental: Since salicylic acid (SA) is important in the induction of systemic acquired resistance in plants, the distal leaf samples were collected for SA estimation at 6h post-sodium dithionite treatment. […] After observing higher SA accumulation in the distal parts of sodium dithionite treated plants, its efficiency against pathogen spread was checked. The sodium dithionite treated plants were challenged with Pseudomonas syringae pv. Tomato avrrpm1 DC3000 (1×10^8 CFU/ml) to the distal part of the plants and observed phenotype of disease development till 48 hours post infection (hpi) (FIG. 8). […] FIG. 8A depicts the SA levels from distal leaves in response to sodium dithionite treatment. FIG. 8B depicts the bacterial growth in response to sodium dithionite treatment.

Compound: O=S([O-])S(=O)[O-].[Na+].[Na+] [sodium dithionite]
- bacterial count: Significant reduction in bacterial count
